Reference: PubChem BioAssay AID588855 (National Center for Advancing Translational Sciences (NCATS), 2011)
Hit rate of the full screen: of about 410,000 compounds, about 5,000 (1.2%) were called active. This list was built around the results that the source calls inconclusive (neither active nor inactive); the mix of calls is not that of the screen. The call rests on the fitted dose curve; in most records, active means well fitted inhibition curve with a large enough effect; inconclusive means small, poorly fitted or top-dose-only effect; inactive means no such curve, though single readings can be large or run the other way. Where the call is inconclusive, the potency comes from a doubtful curve fit.

Experiment: qHTS for Inhibitors of TGF-b; further: nearly all actives have a fitted effect of over 65% in size
Conditions: HepG2 CAGA-GFP TGF-b/SMAD3 reporter, GFP fluorescence, 18 h, TGF-beta stimulated, 500 pg/mL final; series mostly up to 46.1 µM
Method in brief: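 Using HEPG2 CAGA-GFP reporter cells at 1000 cells/well, we pinned test compounds, stimulated with recombinant TGF-beta (500 pg/mL final) and measured total well GFP after 18 h.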
Potency means the concentration at half of the fitted maximal effect; tags describe the fitted curve by direction and shape.

Compound | Potency
CCN(CC)c1ccc(/C=C/c2ccc3ccccc3n2)cc1 | active: 2.51 µM
O=C(CCc1ccccc1)NC(=S)Nc1cccc(C(=O)O)c1 | inactive
COC(=O)c1c(NC(=O)Cc2ccccc2)sc(C)c1C | inactive
Cc1ccc(C(C(=O)NCC2CCCO2)N(Cc2ccccc2)C(=O)c2ccc(-c3ccccc3)[nH]2)o1 (stereo unspecified) | inconclusive: 25.1 µM [inhibitor, single point]
CC(=O)Nc1ccc(NC(=O)C(C)OC(=O)c2cccc(S(=O)(=O)N3CCCCCC3)c2)cc1 (stereo unspecified) | inactive
COc1cc(/C=N/NC(=S)NCCN2CCOCC2)ccc1O | inactive
COc1cc(C(=O)Nn2c(O)c(C3=c4ccccc4=NC3=O)sc2=S)ccc1O | inconclusive: 35.5 µM [inhibitor, single point]
CC1CC(C)(C)N2C(=O)C3(Nc4ccccc4S3)c3cccc1c32 (stereo unspecified) | inconclusive: 14.1 µM [inhibitor, single point]
Clc1ccc(-c2csc3ncnc(Sc4nnnn4-c4ccccc4)c23)cc1 | active: 6.31 µM
Oc1ccc(-c2nc3c4c(ncn3n2)-c2ccccc2CC42CCCC2)cc1 | inactive
CSc1nnc(C)c(/C=C/Nc2ccc(F)cc2F)n1 | inactive
CC(C)c1ccc(CN(C)C(=O)c2ccc(S(=O)(=O)NCc3ccco3)cc2)cc1 | inconclusive: 15.8 µM [inhibitor, partial curve, poor fit]
Cc1cccc(NC(=O)C(=O)NCC2CCCN2S(=O)(=O)c2cccs2)c1C (stereo unspecified) | inconclusive: 0.112 µM [inhibitor, full curve, poor fit]
O=S(=O)(Nc1cccc2ccccc12)c1cccs1 | inactive
Cn1c(C(=O)N2CCN(Cc3ccccc3)CC2)cc2c(=O)n(C)c3ccccc3c21 | inactive
COc1ccc2c(c1)C(=O)[C@H](O)[C@@H](c1ccc(OC)c(Br)c1)O2 | inconclusive: 6.31 µM [inhibitor, single point]
COc1ccccc1CCN=C(N)NS(=O)(=O)c1cccs1 | inconclusive: 25.1 µM [inhibitor, partial curve, poor fit]
CCC(=O)NC(c1cccs1)c1cc([N+](=O)[O-])c2cccnc2c1O (stereo unspecified) | inconclusive: 0.708 µM [inhibitor, full curve]
Cn1cccc1/C=N/NC(=O)c1cc2ccccc2cc1O | inconclusive: 22.4 µM [inhibitor, partial curve, poor fit]
CCc1cccc(C)c1Nc1c(-c2ccc(N(C)C)cc2)nc2cnccn12 | active: 15.8 µM
Cc1cc(C)cc(N(C(=O)c2csnn2)C(C(=O)NC2CCCC2)c2cccnc2)c1 (stereo unspecified) | inconclusive: 0.891 µM [inhibitor, full curve, poor fit]
COc1ccc(S(=O)(=O)N2CCOCC2)cc1NC(=O)COC(=O)CCS(=O)(=O)c1ccc(C)cc1 | inactive
CCCOc1ccc(CN2C(=O)C(=O)c3cccc(C)c32)cc1 | active: 15.8 µM
COc1ccc(-c2nc3ccccc3s2)cc1NC(=O)c1cccc(F)c1 | inactive

Compound | Potency
Cn1c(-c2ccc(F)c(F)c2)cc2onc(-c3ccccc3)c2c1=O | inconclusive: 3.16 µM [inhibitor, partial curve, poor fit]
Cc1nc(N=C(N)N)nc2ccccc12 | active: 12.6 µM
COC(=O)C1=C(N)c2c(F)cccc2C1(C#N)c1ccc(F)cc1 (stereo unspecified) | inactive
COc1ccc(CNC(=O)c2cc3c(=O)n(Cc4ccc(OC)cc4)ccc3nc2C)cc1 | inconclusive: 11.2 µM [inhibitor, single point]
CC(C(=O)NC1(C#N)CCCCC1)N(C)CC(=O)Nc1ccc(Cl)c(Cl)c1 (stereo unspecified) | inconclusive: 20 µM [inhibitor, single point]
CC1(C(=O)Nc2ccc3c(c2)OCCO3)CCC(=O)N1C1CCN(Cc2ccccc2)CC1 (stereo unspecified) | inactive
Cc1cc(C)c2oc(C(=O)N3CCN(Cc4ccccc4)CC3)cc(=O)c2c1 | inconclusive: 7.08 µM [inhibitor, partial curve, poor fit]
O=C(NC1CCC(O)CC1)c1cc(-c2ccc(Cl)cc2)nc2ccccc12 (stereo unspecified) | inactive
COc1cc(OCc2ccccc2)c(OC)c(OCc2ccccc2)c1 | inactive
O=S1(=O)c2ccccc2N(Cc2ccc(F)cc2)c2ccccc21 | inconclusive: 35.5 µM [inhibitor, single point]
Clc1ncnc2scc(-c3ccccc3)c12 | inactive
Cc1cc(C)c2nc(SCCc3ccccc3)nc(C)c2c1 | inactive
COc1ccccc1N=Nc1ccc(O)c2ncccc12 | inconclusive: 6.31 µM [inhibitor, single point]
Cc1cc2nc(-c3ccc(=O)[nH]c3)n(C)c2cc1C | inconclusive: 5.62 µM [inhibitor, single point]
CCN1C(=O)[C@@H]2[C@@H](c3ccc(-c4ccc(Cl)c(Cl)c4)cc3)N3CCC[C@@]3(C(=O)OC)[C@@H]2C1=O | inconclusive: 35.5 µM [inhibitor, single point]
O=C(NCCOCCn1c(=O)oc2ccccc21)Nc1ccc(F)cc1F | inconclusive: 10 µM [inhibitor, partial curve, poor fit]
CC(C)(C)NC(=O)C(c1ccc(-c2ccccc2)cc1)N(C[C@H]1CC[C@@H]([C@@H]2CC[C@H](CO)O2)O1)C(=O)c1ccc(-c2ccccc2)cc1 (stereo partly specified) | inconclusive: 20 µM [inhibitor, single point]
O=C1CSC(=Nc2ccc(O)cc2)N1c1ccc(O)cc1 | inactive
COc1ccc(/C=C/C(=O)c2ccccc2)c(OC)c1 | inconclusive: 35.5 µM [inhibitor, single point]
Cc1ccc(S(=O)(=O)Nc2cccc3c2O[C@H](CN(C)Cc2ccc(-c4ccccc4)cc2)[C@@H](C)CN([C@H](C)CO)C3=O)cc1 | active: 10 µM
COc1ccccc1N(CCC#N)C(=S)Nc1ccc(S(=O)(=O)N2CCOCC2)cc1 | inactive
Clc1cccc(CN2CCSCC2)c1Cl | inactive
COc1ccc(S(=O)(=O)N2CCOCC2)cc1NC(=O)Cc1sc(C)nc1-c1ccc(F)cc1 | inconclusive: 20 µM [inhibitor, single point]
CC1=C(C(=O)N(C(C)C)C(C)C)CC(CC(=O)NCCCCc2ccccc2)C(=O)N1Cc1ccccc1 (stereo unspecified) | inconclusive: 2.24 µM [inhibitor, full curve, poor fit]

Compound | Potency
COc1ccc(CCNC(=O)C2CC(c3ccccc3F)=NO2)cc1 (stereo unspecified) | inconclusive: 12.6 µM [inhibitor, single point]
C/C(=N/NC(=O)c1ccc(C(C)(C)C)cc1)c1ccccn1 | inconclusive: 5.62 µM [inhibitor, full curve]
Cc1noc(C)c1-c1nc(CS(=O)(=O)c2ccc(Cl)cc2)no1 | inconclusive: 0.224 µM [inhibitor, full curve]
Cc1nn2c(NCc3ccccn3)cc(C(C)(C)C)nc2c1-c1ccccc1 | inconclusive: 12.6 µM [inhibitor, partial curve, poor fit]
Cc1ccc(CNC(=O)C2CCC(CNc3nc(=S)[nH]c4ccccc34)CC2)cc1 (stereo unspecified) | inconclusive: 35.5 µM [inhibitor, single point]
Oc1c(Br)cc(Br)cc1C=Nc1ccc2[nH]ncc2c1 | inconclusive: 14.1 µM [inhibitor, single point]
COc1ccc(NS(=O)(=O)c2ccc3oc(Nc4ccc5c(c4)OCCO5)nc3c2)cc1 | inconclusive: 35.5 µM [inhibitor, single point]
Cc1[nH]c2ccccc2c1CCN(Cc1cccs1)C(=S)Nc1ccccc1 | inconclusive: 11.2 µM [inhibitor, partial curve]
Cc1n[nH]c(C)c1S(=O)(=O)N1CCCC(C(=O)NCc2ccccc2Cl)C1 (stereo unspecified) | inconclusive: 14.1 µM [inhibitor, single point]
Cc1ccc(Oc2ccc(NC(=O)Cn3ccsc3=N)cc2)cc1 | inconclusive: 22.4 µM [inhibitor, single point]
COc1cccc(C(=O)O/N=C(\C)c2cnccn2)c1 | inactive
COc1ccc(C(C)NC(=O)Cc2cccs2)cc1 (stereo unspecified) | inactive
Cc1ccc(Cn2c(C(CO)Nc3nc(-c4ccc(Cl)c([N+](=O)[O-])c4)cs3)nc3ccccc32)cc1 (stereo unspecified) | active: 15.8 µM
CCN(CC)S(=O)(=O)c1ccc(C(C)NC(=O)Cc2c[nH]c3ccccc23)cc1 (stereo unspecified) | inactive
CCC(=O)n1nc(-c2ccc(OC)cc2)nc1N | inconclusive: 35.5 µM [inhibitor, single point]
O=C(O)c1ccc(Nc2nc3ccccc3nc2NS(=O)(=O)c2ccc(F)cc2)cc1 | inconclusive: 35.5 µM [inhibitor, single point]
O=C(c1ccccc1)[C@@H]1[C@@H]2C(=O)N(c3ccc(F)cc3)C(=O)[C@@H]2C2CCCN21 (stereo partly specified) | inconclusive: 12.6 µM [inhibitor, partial curve, poor fit]
O=C1[C@H](Cc2ccccc2)NCC=CC[C@@H](c2ccco2)N1Cc1ccccc1 | inactive
CCOCCCNC(=O)CN1C(=O)NC(Cc2c[nH]c3ccccc23)C1=O (stereo unspecified) | inactive
CCOc1ccc(CN(C)c2nc(-c3cccnc3)nc3ccccc23)cc1OC | inconclusive: 22.4 µM [inhibitor, single point]
COc1ccccc1OCCNC(=O)C(CCSC)NC(=O)c1ccccc1Cl (stereo unspecified) | inconclusive: 6.31 µM [inhibitor, single point]
CC(Nc1ccc(Br)cn1)c1cc(Cl)ccc1O (stereo unspecified) | inconclusive: 35.5 µM [inhibitor, single point]
C/C(=N/N1CCN(Cc2cccc3ccccc23)CC1)c1cccnc1 | inconclusive: 3.55 µM [inhibitor, single point]
